The values that follow come from PubChem BioAssay AID488969 (Vanderbilt High Throughput Screening Facility, 2010).

The full ranking holds about 110,000 compounds; the median of “z-score” is about -0.1, and the highest 2% start at about 2. Some of the results follow. Activity calls are given as the source filed them.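 The calls were made as follows: active = z-score in the third read window above 3 or below -3; inactive = the rest.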

The target of the assay is Metabotropic glutamate receptor 8 (Rattus norvegicus) (UniProt P70579). Put plainly: mGluR8 Gi/Go-coupled signaling modulation – cell-based, rat, thallium flux, HTS, primary screen (AID 488969). Particulars: HEK293 rat mGluR8, GIRK (G protein-gated inwardly rectifying potassium channel) thallium flux, FluoZin2; at 10 µM; stronger effect = higher value; submaximal glutamate (EC20) added with thallium.
Sequence of UniProt P70579 (P70579 whole entry, looked up): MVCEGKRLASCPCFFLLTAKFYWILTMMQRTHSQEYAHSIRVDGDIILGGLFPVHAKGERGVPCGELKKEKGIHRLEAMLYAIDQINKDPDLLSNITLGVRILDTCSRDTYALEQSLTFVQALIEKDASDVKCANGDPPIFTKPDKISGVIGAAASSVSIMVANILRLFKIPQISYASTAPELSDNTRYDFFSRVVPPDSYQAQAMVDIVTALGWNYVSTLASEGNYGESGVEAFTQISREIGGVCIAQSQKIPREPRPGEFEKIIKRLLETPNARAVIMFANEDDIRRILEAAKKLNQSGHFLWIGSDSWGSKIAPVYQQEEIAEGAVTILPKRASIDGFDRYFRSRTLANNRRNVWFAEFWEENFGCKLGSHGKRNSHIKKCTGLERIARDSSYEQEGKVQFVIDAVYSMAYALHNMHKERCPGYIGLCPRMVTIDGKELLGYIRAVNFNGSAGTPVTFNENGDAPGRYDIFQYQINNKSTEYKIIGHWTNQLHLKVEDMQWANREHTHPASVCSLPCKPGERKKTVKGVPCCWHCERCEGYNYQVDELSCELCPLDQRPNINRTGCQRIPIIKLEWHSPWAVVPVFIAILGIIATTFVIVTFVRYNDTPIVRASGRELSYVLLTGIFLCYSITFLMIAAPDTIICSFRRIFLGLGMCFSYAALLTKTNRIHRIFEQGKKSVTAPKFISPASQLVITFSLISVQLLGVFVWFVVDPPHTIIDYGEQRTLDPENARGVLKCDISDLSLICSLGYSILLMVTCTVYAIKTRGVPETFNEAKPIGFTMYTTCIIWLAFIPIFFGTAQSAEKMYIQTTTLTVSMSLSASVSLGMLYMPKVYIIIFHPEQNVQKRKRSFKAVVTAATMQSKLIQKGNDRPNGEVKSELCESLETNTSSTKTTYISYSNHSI
`Cc1ccccc1NC(=O)C1CCCN1S(=O)(=O)c1cccc2cccnc12` (stereo unspecified) gave a z-score of -0.0844.
`Cn1c(CN2CCCCC2)nc2cc(NC(=O)c3ccccc3)ccc21` registered a z-score of 0.236.
In turn, `CNc1cc(CS(=O)c2ccccc2)nc(-c2ccccc2)n1` (stereo unspecified) displayed a z-score of -0.156.
For `CC(C(=O)Nc1ccc(F)c(F)c1F)N(C)CC(=O)Nc1ccccc1Br` (stereo unspecified), the z-score was -0.465.
`C=C(C)c1cccc(C(C)(C)NC(=O)Nc2cc(C)ccc2OC)c1` registered a z-score of 0.222.
On to `CCOc1ccccc1C1C(C#N)=C(N)Oc2cc(C)n(C)c(=O)c21` (stereo unspecified), for which the z-score was -0.0841.
`O=C(COC(=O)C1CC(=O)N(c2ccc3c(c2)OCCO3)C1)NC1CCCc2ccccc21` (stereo unspecified): the z-score was -1.03.
The same measure for `CCC(C)n1c(SCC(=O)NC(=O)Nc2ccc3c(c2)OCCO3)nc2ccccc2c1=O` (stereo unspecified): active: 4.47.
For `Cc1ccc(S(=O)(=O)NNC(=O)c2cnn(-c3ccccc3)c2-n2cccc2)cc1`, the z-score is 0.0647.
Take `COc1ccccc1NC(=O)c1ccc(NC(=O)COC(=O)C2(C)CC2(Cl)Cl)cc1` (stereo unspecified): the z-score is -0.279.
Consider `COc1ccc(Cc2nnc(SC)[nH]c2=O)cc1OC`, for which the z-score was determined as 0.497.
For `COc1cccc(N2CCN(C(=O)c3ccc(N4C(=O)NC5CC4(C)Oc4ccccc45)cc3)CC2)c1` (stereo unspecified), the z-score is -0.29.
Compound `Cc1ccccc1C(=O)NC(=S)Nc1ccc(S(=O)(=O)N2CCN(C)CC2)cc1` registered a z-score of 0.142.
With `Cc1ccc(S(=O)(=O)NCC(=O)OCC(=O)c2cccs2)cc1`, the z-score is 0.396.
Turning to `CCN(CC)S(=O)(=O)c1ccc(N=N/C(C(C)=O)=C(/C)O)cc1`, the z-score was -0.116.
Take `CC(=O)Nc1ccccc1OCC(=O)N(Cc1ccccc1)C(C)C`: the z-score was -0.264.
`COc1ccccc1CNC(=O)C1CCCN(S(C)(=O)=O)C1` (stereo unspecified): the z-score stood at 0.086.
`COC(=O)C1=C(C)N(C(C)C)C(=O)C1(NC(=O)C1CCCCC1)C(F)(F)F` (stereo unspecified) registered a z-score of -0.495.
For `CCCCCCOC(=O)C(C#N)c1nc2ccccc2nc1N1CCOCC1` (stereo unspecified), the z-score is 0.194.
Take `N#CCC(CNc1ncc(C(F)(F)F)cc1Cl)OC(=O)c1ccc(Cl)cc1Cl` (stereo unspecified): the z-score is 0.0061.
`CCC(C)NC(=O)c1ccc(N2CCC3(CC2)OCCO3)c([N+](=O)[O-])c1` (stereo unspecified) gave a z-score of 0.408.
Take `Cc1cc(C)n2nc(/C(C#N)=C/c3ccccc3)c(C#N)c2n1`: the z-score was -0.0817.
As for `Cn1c(N)c(C#N)c2c(c1=S)COC(C)(C)C2`, the z-score is -0.21.
For `Cc1ccc(C)c(N2CCN(S(=O)(=O)c3ccc4c(c3)OCCO4)CC2)c1`, the z-score amounted to 1.01.
As for `COc1ccc(Nc2ncc3c(n2)CC(c2ccc(OC)cc2)CC3=O)cc1` (stereo unspecified), the figure is 0.611; as for `COCCNC(=O)CSc1nc(-c2ccc(OC)c(OC)c2)cc(C(F)(F)F)n1`, 0.253; as for `C=CCN1C(=O)C(Cc2ccccc2)SC1=Nc1ccc(C(=O)O)cc1` (stereo unspecified), 0.936.
The same measure for `COc1ccc2cc(Br)ccc2c1CC(=O)NC(C)(C)C`: -0.349; for `CCCc1c(O)nc(SCc2ccccc2)[nH]c1=O`: -0.0231; for `Cc1cccc(C)c1NC(=S)NC(=O)CCc1ccccc1`: 1.73.
For `CCCc1cc(=O)n2[nH]c(NCc3c(Cl)cccc3Cl)nc2n1`, the z-score is -0.888.
`Cc1ccc(C(=O)Nc2ccc(N3CCOCC3)cc2)cc1` returned a z-score of 0.575.
`CCS(=O)(=O)NCCc1cc2ccc(C)cc2[nH]c1=O` registered a z-score of -0.165.
In the case of `Cc1[nH]nc2c1C(c1cccc(O)c1)C1=C(CC(C)(C)CC1=O)N2` (stereo unspecified), the z-score was 0.201.
The compound `COc1ccc(C2=NOC(CN3C(=O)c4ccccc4S3(=O)=O)C2)cc1` (stereo unspecified) yielded a z-score of -0.731.
Take `CCOC(=O)Cn1c(=NC(=O)CSC(C)=O)sc2cc(F)ccc21`: the z-score was 0.332.
Compound `CCNC(=O)c1c(NC(=O)c2cc(-c3cc(C)ccc3O)n[nH]2)sc2c1CCCC2` yielded a z-score of 0.301.
`C=CCCCCCCCCC(=O)NN`: the z-score came to 0.048.
On to `CN(C)S(=O)(=O)c1ccc(C(=O)Nc2ccc(S(=O)(=O)NC3=NCCCCC3)cc2)cc1`, for which the z-score was -0.149.
`Cc1ccc(CNC(=O)c2cccc(S(C)(=O)=O)c2)cc1` registered a z-score of 0.312.
Regarding `Cc1nc(CCNC(=O)c2ccccc2)cs1`, the z-score was -0.162.
The same measure for `COc1cc(/C=C(/NC(=O)c2ccccc2)C(=O)Nc2cccc(O)c2)c([N+](=O)[O-])cc1OC`: 0.108.
For the compound `C=CCNC(=O)C1CC(=O)N(c2ccc(OCC(=O)Nc3cccc(OC)c3)cc2)C1` (stereo unspecified), the z-score worked out at 0.918.
`Cn1cc(-c2nnnn2-c2cccc(C(F)(F)F)c2)c(C(F)(F)F)n1`: the z-score is -0.143.
Turning to `C=CCc1ccc(OCC(O)COCC)c(OC)c1` (stereo unspecified), the z-score was -0.12.
The same measure for `COc1ccnc(NCc2ccc(Cl)cc2)c1C#N`: -0.29.
The same measure for `CC1/C(=N/O)CC(c2ccccc2)N(C)C1c1ccccc1` (stereo unspecified): -0.0255; for `CCOc1ccc2c3c(c(=O)oc2c1OCC)CCCC3`: -2.42; for `COc1ccc(NC(=O)C2CCCN2S(=O)(=O)c2cccc3cccnc23)c(OC)c1` (stereo unspecified): -0.556.
The compound `COc1ccc(O)c(/C=N/n2c(-c3ccco3)csc2=Nc2cccnc2)c1` displayed a z-score of 0.368.
In the case of `CCOc1ccc(/C=C/C(=O)Nc2ccc(C(N)=O)cc2)cc1OC`, the z-score was -0.0334.
Consider `COc1ccc(C(=O)Nc2ccc3oc(Cc4ccc(Cl)cc4)nc3c2)cc1OC`, for which the z-score is -0.247.
`CCN(C(=O)Cc1ccc(Br)cc1)C1CCCCC1` registered a z-score of -0.936.
As for `O=C(/C=C\Nc1ccccn1)c1ccccc1`, the figure is 0.299.
In turn, `C=CCn1c(N)c(C(=O)Nc2cccc(C)c2)c2nc3ccccc3nc21` yielded a z-score of 0.172.
In turn, `CC(C)NS(=O)(=O)c1ccc(OCC(=O)Nc2cccc3ccccc23)cc1` returned a z-score of -0.13.
The same measure for `Cc1cc(NS(=O)(=O)c2ccc(Nc3nc(-c4ccc(O)cc4)cs3)cc2)no1`: -0.478.
Consider `C=CCCC(=O)Nc1nc(C)c(-c2csc(Nc3cc(Cl)ccc3OC)n2)s1`, for which the z-score was -0.142.
Turning to `CC(=O)N1CCC(Nc2ccc(C)cc2)CC1`, the z-score is -0.368.
In turn, `CN1C(=O)C2(OCC(COc3ccc(Cl)cc3)O2)c2ccccc21` (stereo unspecified) returned a z-score of 0.778.
`CCC(=O)NCCCCCCNC(=O)CC` registered a z-score of -0.156.
Take `O=C(CCCn1c(=S)[nH]c2ccccc2c1=O)NC1CCCCC1`: the z-score was found to be 0.0447.
`CCN1CCN(CCCCSc2ccccc2)CC1` had a z-score of -0.152.
`CCN(C(=O)c1cn(C)c(=O)c2cc(OC)c(OC)cc12)c1cc(OC)ccc1OC` returned a z-score of -0.0628.
As to `CC(C)NS(=O)(=O)c1ccc(CCC(=O)Nc2cc(Cl)ccc2Oc2ccccc2)cc1`, the z-score is -0.183.
On to `CC(Oc1ccc(Cl)cc1Cl)C(=O)NCCN1CCOCC1` (stereo unspecified), for which the z-score came out at 0.00607.
`Cc1ccc(NC(=O)CN2C(=O)S/C(=C\C(=O)Nc3ccc(Cl)cc3)C2=O)cc1` yielded a z-score of -0.0557.
`CC1CCCCC1NC(=O)CO/N=C/c1ccccc1OC(F)F` (stereo unspecified) yielded a z-score of 0.053.
Compound `CC(CNC(=O)c1ccc(-c2ccccc2)cc1)CN(C)C` (stereo unspecified) gave a z-score of 0.0655.
The compound `COc1ccc(-n2nnc3c(=O)n(Cc4cccc(C)c4)cnc32)cc1` registered a z-score of -0.0152.
`Cc1ccc(Cl)cc1NC(=O)COC(=O)c1ccc(N2CCCC2)c([N+](=O)[O-])c1` showed a z-score of 0.277.
In the case of `CC1(C)CC(=O)C(C=Nc2ccccc2Sc2ccccc2)=C(O)C1`, the z-score is -0.747.
For `CC1CCN(C(=S)NC2CC3CCC2C3)CC1` (stereo unspecified), the z-score was -0.273.
`CCOc1ccccc1C1C(C(N)=O)=C(C)Nc2nc(-c3ccc(OC)cc3)nn21` (stereo unspecified) yielded a z-score of -0.81.
With `CCN(CC)S(=O)(=O)c1ccc(N2CCOCC2)c(NS(=O)(=O)c2ccc(C)cc2)c1`, the z-score is -0.152.
For the compound `Cc1ccc(/C(N)=N/OC(=O)/C=C/c2ccccc2)cc1`, the z-score was -0.596.
With `Cc1nn(C)c2ncc(C(=O)c3cc(F)ccc3O)cc12`, the z-score was -0.126.
For `COC(=O)c1ccc2c(=O)n(CC3CCCO3)c(SCC(=O)Nc3ccccc3Cl)nc2c1` (stereo unspecified), the z-score is -0.289.
`Cc1ccc(CSc2nnc(C(F)(F)F)n2Cc2ccc(F)cc2)cc1`: the z-score is -0.365.
Compound `O=C(C1CN(S(=O)(=O)c2ccccc2)CCN1S(=O)(=O)c1ccccc1)N1CCCCCC1` (stereo unspecified) showed a z-score of -0.374.
Take `Cc1cccc(C)c1-n1c(SCC(=O)N2CC(=O)Nc3ccccc32)nc2ccccc2c1=O`: the z-score was -0.109.
Consider `COc1ccc(C(=O)OCC(=O)c2ccc(C3CCCCC3)cc2)cc1`, for which the z-score came out at 0.0448.
With `COc1ccccc1C(=O)NNC(=S)NC(=O)c1sc2ccccc2c1Cl`, the z-score was active: 4.01.
For `COc1ccccc1N1C(=O)CCC1(C#N)c1ccc(Br)cc1` (stereo unspecified), the z-score was -0.14.
Regarding `Cc1nn(-c2nnc(NCc3ccccc3)nn2)c(C)c1Br`, the z-score is -0.428.
In the case of `COc1ccccc1/C=N/NC(=O)C(NC(=O)c1ccccc1)=C(C)C`, the z-score is -0.268.
With `O=C(c1ccc(Cl)cc1)c1ccccc1C(=O)N1CCOCC1`, the z-score came to 0.919.
`CCOC(=O)CSc1nnc(SCCN2C(=O)c3ccccc3C2=O)s1`: the z-score is -0.804.
In the case of `C/C(=N\NC(=O)CN1CCN(Cc2ccc(C)cc2)CC1)c1ccncc1`, the z-score was 0.0602.
In turn, `COc1ccc(NC2CC(=O)N(c3ccccc3)C2=O)cc1` (stereo unspecified) yielded a z-score of 0.00849.
`CCCC(=O)N=c1sc2cccc(F)c2n1C`: the z-score is -0.349.
On to `CCCn1c(=NC(=O)c2c(-c3c(F)cccc3Cl)noc2C)c(C(=O)OCC)cc2c(=O)n3ccccc3nc21`, for which the z-score was -0.723.
The compound `CC1(C)Cc2c(sc3ncnc(NNC(=S)NCc4ccccc4)c23)CO1` gave a z-score of -0.123.
The compound `CCOC(=O)c1sc(NC(=O)CCN2C(=O)c3cccc([N+](=O)[O-])c3C2=O)c(C(=O)OCC)c1C` yielded a z-score of -0.136.
Take `Cc1ccc(C)c(NC(=O)CSc2nc(C)cc(C)c2C#N)c1`: the z-score was 0.592.
The compound `COc1cccc(-n2c(SCC(=O)NC3CCCC3)nnc2-c2ccco2)c1` returned a z-score of -0.193.
Take `O=C1CC(c2ccco2)CC(O)=C1C=NCCN1CCN(C2CC(=O)N(c3ccccc3)C2=O)CC1` (stereo unspecified): the z-score is -0.0278.
The compound `NC(=NCCc1c[nH]c2ccccc12)NS(=O)(=O)c1ccc2ccccc2c1` had a z-score of -0.0967.
As to `C1=C(CCNc2ncnc3c2[nH]c2ccccc23)CCCC1`, the z-score was -1.12.
As for `N/C(=N/O)c1nc(N2CCCC2)nc(N(c2ccccc2)c2ccccc2)n1`, the figure is -0.626; as for `Cc1ccccc1-n1c(=O)c2c(n3cnnc13)-c1ccccc1CC21CCCCC1`, -0.582.
`CCOC(=O)c1sc(NC(=S)NC(=O)C2CC2)cc1C` gave a z-score of -0.201.
As for `Cn1c(=O)c2c(nc(N3CCN(Cc4ccccc4)CC3)n2CC(=O)c2ccccc2)n(C)c1=O`, the z-score was -0.583.
Take `Nc1nnc(CC(=O)N/N=C/c2cccc(OCCOc3ccccc3)c2)s1`: the z-score is -0.152.
As for `C=CCn1c(SCc2nc3scc(-c4ccccc4)c3c(=O)[nH]2)nnc1-c1ccccc1F`, the z-score was -0.943.
`CN(c1ccccc1)S(=O)(=O)c1ccc(Cl)c(C(=O)NCCc2c[nH]c3ccccc23)c1` had a z-score of -0.252.
